{
  "source": "patent US20240101605A1",
  "about": "(Affibody, published 2024)",
  "binders": {"B1": {"name": "H6-ZC69001-ABD (designed binder)", "chain": "MGSSHHHHHHYYLEVDNKFNKEFYNAWWEIRKLPNLNAWQKEAFKTSLKDDPSQSANLLAEAKKLNDAQAPKVDGGGGSGGGGSGGGGSLAEAKVLANRELDKYGVSDFYKRLINKAKTVEGVEALKLHILAALP", "notes": "also called ZC69001 in the format H6-Z-(G4S)3-ABD"}, "B2": {"name": "H6-ZC69002-ABD (designed binder)", "chain": "B1 chain with A38S, W39Y", "notes": "also called ZC69002 in the format H6-Z-(G4S)3-ABD"}, "B3": {"name": "H6-ZC69003-ABD (designed binder)", "chain": "B1 chain with Y24Q, N25W, W28Q, R31L, K32H, A38K, W39Y", "notes": "also called ZC69003 in the format H6-Z-(G4S)3-ABD"}, "B4": {"name": "H6-ZC69004-ABD (designed binder)", "chain": "B1 chain with Y24S, N25M, W27M, W28K, R31L, K32A, A38Q, W39Y", "notes": "also called ZC69004 in the format H6-Z-(G4S)3-ABD"}, "B5": {"name": "H6-ZC69005-ABD (designed binder)", "chain": "B1 chain with Y24Q, N25W, W28Q, R31L, K32V, A38K, W39Y", "notes": "also called ZC69005 in the format H6-Z-(G4S)3-ABD"}},
  "note": "Substitutions are numbered along the chain they refer to. Numbers in names are those of the source.",
  "data": [
    {"target": "T1, extracellular domain from murine CD69 (murine, UniProt P37217 64-199)", "T1 construct": "Bought protein; immobilized on a CM5 chip by EDC/NHS coupling; also called mCD69", "T1 sequence": "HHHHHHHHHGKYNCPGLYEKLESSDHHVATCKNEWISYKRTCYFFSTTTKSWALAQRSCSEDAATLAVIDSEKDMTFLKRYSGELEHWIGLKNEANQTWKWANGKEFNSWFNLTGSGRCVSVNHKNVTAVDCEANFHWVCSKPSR", "experiment": "SPR, Biacore T200, target immobilized on CM5 chip, 1-100 nM in triplicates", "units": {"Kd": "nM"}, "values": [
      {"binder": "B1", "Kd": 34},
      {"binder": "B2", "Kd": 46}
    ]},
    {"target": "T2, extracellular domain from human CD69 (human, UniProt Q07108 64-199)", "T2 construct": "Bought protein; immobilized on a CM5 chip by EDC/NHS coupling; also called hCD69", "T2 sequence": "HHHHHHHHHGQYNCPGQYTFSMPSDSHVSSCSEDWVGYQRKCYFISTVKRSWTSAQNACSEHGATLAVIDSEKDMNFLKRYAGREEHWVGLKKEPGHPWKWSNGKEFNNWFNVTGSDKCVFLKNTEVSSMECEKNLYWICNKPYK", "experiment": "SPR, Biacore T200, target immobilized on CM5 chip, 1-100 nM in triplicates", "units": {"Kd": "nM"}, "values": [
      {"binder": "B1", "Kd": 34},
      {"binder": "B3", "Kd": 49},
      {"binder": "B4", "Kd": 29},
      {"binder": "B5", "Kd": 30},
      {"binder": "B2", "Kd": 51}
    ]},
    {"target": "T3, Human serum albumin (human, UniProt P02768 25-609)", "T3 construct": "immobilized on a CM5 chip; also called HSA", "experiment": "SPR, Biacore T200, target immobilized on CM5 chip, 1-100 nM in triplicates", "units": {"Kd": "nM"}, "values": [
      {"binder": "B1", "Kd": 0.17},
      {"binder": "B3", "Kd": 0.49},
      {"binder": "B4", "Kd": 0.78},
      {"binder": "B5", "Kd": 0.52},
      {"binder": "B2", "Kd": 0.09}
    ]}
  ]
}
